Measurements reported in PubChem BioAssay (NCI).
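Grown in 96-well plates, cells were treated for 48 hours with each compound at five concentrations. Insufficient inhibition: endpoint recorded as highest concentration tested. GI50 is the concentration that inhibits growth by half. TGI: concentration producing complete growth inhibition.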

tested on: NCI-H322M lung; experiment: NCI tumour cell line growth inhibition, 48 h

First: CCN(CC)c1ccnc(CNCCSC(c2ccccc2)(c2ccccc2)c2ccc(OC)cc2)c1
Second: CSc1nc(-c2cccc(C)c2)c2cc(-c3ccccc3)n(C)c2n1
The GI50 of the first is 5.7-fold lower: 3.87 µM for the first, 22 µM for the second.

Compared with C[C@H]1CN(C(=O)c2ccc3c(NNC(=O)c4ccncn4)nc4cc(F)c(F)cc4n23)CCN1, Nc1cc(-c2c[nH]c3ccc(F)cc23)nc2cc(-c3c[nH]c4ccccc34)nn12 is 4.5-fold higher in GI50: 1.34 µM for the first, 6.05 µM for the second.

Compared with CCN(CC)c1ccnc(CNCCSC(c2ccccc2)(c2ccccc2)c2ccc(OC)cc2)c1, CSc1nc(-c2cccc(C)c2)c2cc(-c3ccccc3)n(C)c2n1 is higher in TGI: 15.6 µM for the first, over 100 µM for the second.

C[C@H]1CN(C(=O)c2ccc3c(NNC(=O)c4ccncn4)nc4cc(F)c(F)cc4n23)CCN1 and Nc1cc(-c2c[nH]c3ccc(F)cc23)nc2cc(-c3c[nH]c4ccccc34)nn12 are within 1.5-fold of each other in TGI: 19 µM for the first, 19.3 µM for the second.
